The supplement of paper PMC10126150
Values marked as one replicate rest on one cluster of the flow cell; about a third of the high ones do not repeat.
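Further: ATP exposure 15 min at 22 °C before imaging.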

What follows are sequences tested on ATP (assay: switch fluorescence ratio, 500 uM ATP over buffer (Cy3 cluster intensity, sum of 5 cycles each) (fold (ratio)); higher = stronger signal-on switching upon ATP binding; sequences stand for … in TCGTCGGCAGCGTCAGATGTGTATAAGAGACAGTTTTTTTTTTTTTTTTTTTTTTTTT…TC). Details: aptamer strand: ATP DNA aptamer (quencher-CACCTGGGGGAGTATTGCGGAGGAAGG + anchor), 100 nM annealed; ATP concentration: 500 uM; one replicate.
Method in brief: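 Five buffer/ATP imaging cycles were run on Cy3-labelled switching-strand clusters on a modified Illumina MiSeq flow-cell, with NaOH stripping and re-annealing between cycles. In each cycle, clusters annealed to 100 nM quencher-labelled ATP aptamer were imaged in selection buffer, then after 15 min with 500 uM ATP at 22 °C. Per cluster, the fluorescence ratio is summed target-cycle over summed buffer-cycle Cy3 intensity, averaged per switch-domain sequence. Only clusters within 100-1000 RFU were kept.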
CCGTTTCTG was tested, and the switch fluorescence ratio was 1.04. With CCGTTTGAGC the switch fluorescence ratio was 1.05. In the case of CCTAAAGTGT, the switch fluorescence ratio was 1.06. In the case of CCTAACGTCA, the switch fluorescence ratio was 1.25. CCTAAGGAGC was tested, and the switch fluorescence ratio was 1.04. In the case of CCTAAGGGCA, the switch fluorescence ratio was 1.01. In the case of CCTAAGTAAT, the switch fluorescence ratio was 2.28. Sequence CCTAAGTGGA has a switch fluorescence ratio of 0.965. Sequence CCTAATATC has a switch fluorescence ratio of 1.22. CCTAATATTG gave a switch fluorescence ratio of 0.993. CCTAATGGTA gave a switch fluorescence ratio of 0.985. CCTACACTAA was tested, and the switch fluorescence ratio was 1.59. Work on CCTACGGGGA yielded a switch fluorescence ratio of 1.36. CCTACGGTTT gave a switch fluorescence ratio of 1.61. Work on CCTACTAAAA yielded a switch fluorescence ratio of 2.99. Work on CCTAGGCATG yielded a switch fluorescence ratio of 1.26. CCTAGGTCAC was tested, and the switch fluorescence ratio was 1.06. In the case of CCTAGTAGTG, the switch fluorescence ratio was 1.01. Work on CCTAGTGGTG yielded a switch fluorescence ratio of 1.15. Work on CCTAGTGTCA yielded a switch fluorescence ratio of 1.01. Work on CCTAGTTGAC yielded a switch fluorescence ratio of 1.14. CCTATACACG gave a switch fluorescence ratio of 1.05. CCTATACACT gave a switch fluorescence ratio of 1.07. In the case of CCTATAGTGA, the switch fluorescence ratio was 1.16. CCTATATCTA showed a switch fluorescence ratio of 0.999. CCTATGTACA showed a switch fluorescence ratio of 1.01. CCTATTAATA gave a switch fluorescence ratio of 1. In the case of CCTATTCCTT, the switch fluorescence ratio was 1.04. For CCTATTCGAT, the switch fluorescence ratio was 1.01. With CCTCAAAATT the switch fluorescence ratio was 1.11. For CCTCAACCGG, the switch fluorescence ratio was 1.32. CCTCAATGGG was tested, and the switch fluorescence ratio was 1.1. Sequence CCTCACATCC has a switch fluorescence ratio of 2.63. For CCTCAGCCAC, the switch fluorescence ratio was 2.87. CCTCAGCTGG showed a switch fluorescence ratio of 2.54. For CCTCAGGCTT, the switch fluorescence ratio was 2.66. With CCTCATCCTT the switch fluorescence ratio was 1.12. In the case of CCTCATCGA, the switch fluorescence ratio was 1.95. Work on CCTCCCTTGT yielded a switch fluorescence ratio of 2.32. Sequence CCTCGATTGG has a switch fluorescence ratio of 1.03. In the case of CCTCGGTGAC, the switch fluorescence ratio was 3.38. Work on CCTCGTATCA yielded a switch fluorescence ratio of 1.09. CCTCGTATG gave a switch fluorescence ratio of 1.02. For CCTCTAGGGA, the switch fluorescence ratio was 1.05. CCTCTCACCA was tested, and the switch fluorescence ratio was 1.28. In the case of CCTCTCGGGA, the switch fluorescence ratio was 1.37. CCTCTCGGGT gave a switch fluorescence ratio of 1.2. CCTCTGGCGG gave a switch fluorescence ratio of 2.45. With CCTGAAGTAT the switch fluorescence ratio was 1. For CCTGAATTTG, the switch fluorescence ratio was 0.967. In the case of CCTGACGTGA, the switch fluorescence ratio was 2.27. With CCTGACTATA the switch fluorescence ratio was 1.12. CCTGATGGGC showed a switch fluorescence ratio of 1.09. For CCTGCACTCG, the switch fluorescence ratio was 1.17. CCTGCCGCGG showed a switch fluorescence ratio of 2.58. In the case of CCTGCCGTAC, the switch fluorescence ratio was 3.38. For CCTGCGGTGG, the switch fluorescence ratio was 1.02. With CCTGCGTCCA the switch fluorescence ratio was 2.44. In the case of CCTGCGTGG, the switch fluorescence ratio was 1.1. Work on CCTGGAACG yielded a switch fluorescence ratio of 1.01. CCTGGACGCA was tested, and the switch fluorescence ratio was 2.41. Sequence CCTGGACGTG has a switch fluorescence ratio of 0.98. Work on CCTGGAGTCG yielded a switch fluorescence ratio of 0.974. Sequence CCTGGATAGG has a switch fluorescence ratio of 0.958. CCTGGATATA gave a switch fluorescence ratio of 0.975. In the case of CCTGGCACTA, the switch fluorescence ratio was 1.85. For CCTGGCCAAC, the switch fluorescence ratio was 1.75. In the case of CCTGGTGCTT, the switch fluorescence ratio was 1.53. For CCTGGTTAGA, the switch fluorescence ratio was 1.02. CCTGGTTATG showed a switch fluorescence ratio of 1.01. With CCTGTAGCGC the switch fluorescence ratio was 1.49. CCTGTCGGTC showed a switch fluorescence ratio of 1.06. For CCTGTCTCTA, the switch fluorescence ratio was 1. For CCTGTGATGT, the switch fluorescence ratio was 1.04. CCTGTTACAC gave a switch fluorescence ratio of 1.02. In the case of CCTGTTCCAG, the switch fluorescence ratio was 0.991.
